# Data from PubChem BioAssay AID504832 (National Center for Advancing Translational Sciences (NCATS), 2011).
# Out of some 310,000 compounds screened, about 18,000 (5.8%) were called active. Inconclusive means that the source gave no clear call. Such entries were picked first, then a sample of the others. The call rests on the fitted dose curve; in most records, active means well fitted inhibition curve with a large enough effect; inconclusive means small, poorly fitted or top-dose-only effect, or another doubt; inactive means no such curve, though single readings can be large or run the other way. Potencies of inconclusive entries are left out as doubtful fits.
# Experiment: Primary qHTS for delayed death inhibitors of the malarial parasite plastid, 48 hour incubation
# Conditions: P. falciparum luciferase growth in erythrocytes; series mostly up to 28.7 µM; activity change, negative = inhibition: at the top concentration
# Method in brief: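 Here the parasites carry a stable luciferase gene and grow inside erythrocytes in Albumax-based RPMI medium with compound for one erythrocytic cycle. Activity is scored as loss of luminescent signal.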
# On the % scale 0 is the no-effect control and ±100 the full control effect; potency means the concentration at half of the fitted maximal effect; tags describe the fitted curve by direction and shape.
SMILES,Potency,"activity change, negative = inhibition"
CSc1nc(Cl)c(Cc2ccc(OC(C)C)cc2)c(N2CCOCC2)n1,"inconclusive [inhibitor, single point]",
CC1=CCC(C(C)(C)O)CC1 (centres undefined),,inactive: 2.63%
CC(C)C(=O)Nc1sc2c(c1-c1nc3ccccc3[nH]1)CCCC2,"inconclusive [inhibitor, single point]",
Cc1ccc(SCCCCN2CCNCC2)cc1,,inactive: 38.7%
CN(C)C(=O)CSc1ccc(S(=O)(=O)N2CCCC2)cn1,"inconclusive [inhibitor, partial curve]",
Cc1cc(C)c(O)c(N)c1,"inconclusive [inhibitor, partial curve, poor fit]",
Cc1[nH]c2ccccc2c1/C=N/NC(=O)C1CC1(c1ccccc1)c1ccccc1 (centres undefined),"inconclusive [inhibitor, single point]",
CC1CN(C(=O)CCC(=O)NCc2ccccc2Cl)c2ccccc2S1 (centres undefined),,inactive: -9.2%
Cc1c(C(=O)N2CCC3(CC2)OCCO3)sc2ncnc(N(C)c3ccccc3)c12,"inconclusive [inhibitor, full curve, poor fit]",
O=C(O)c1ccc(-[n+]2c(-c3ccccc3)cc(-c3ccccc3)cc2-c2ccccc2)cc1,"inconclusive [inhibitor, partial curve, poor fit]",
CC1=CC(C)(C)N(C(=O)CNC2CCCCC2)c2cc(C)ccc21,active: 9.28 µM,
Cc1occc1-c1nnc(SCC(=O)N2c3ccccc3CCc3ccccc32)n1C,active: 7.38 µM,
Cc1ccc2nc(Cl)c(/C=N/Nc3ccc(C(=O)O)cc3)cc2c1,,inactive: -39%
O=C(c1ccccn1)N1CCN(C(=O)c2ccccn2)CC1,,inactive: 39.5%
Cc1ccc(F)cc1NC(=O)CSc1nc(Nc2ccccc2)nc(N2CCOCC2)n1,"inconclusive [inhibitor, single point]",
O=C(NC1CCCCC1)C(c1ccco1)N(C(=O)c1csnn1)c1ccc(Cl)cc1 (centres undefined),"inconclusive [inhibitor, single point]",
COC(=O)CC1C(=O)NC2CCCCC2N1C(=O)CCl (centres undefined),"inconclusive [inhibitor, single point]",
Cc1nc(C(=O)O)nn1-c1cc(Cl)ccc1Cl,,inactive: 10.7%
Clc1ccc(Cn2cnc3ccccc32)cc1,"inconclusive [inhibitor, partial curve, poor fit]",
COc1ccc(N/C=C\C(=O)c2ccc3ccccc3c2)cc1,,inactive: 191%
O=C(N[C@@H](Cc1ccccc1)C(=O)O)c1ccncc1,,inactive: 8.28%
Cc1cc(C)c2c(NC(=S)NC(=O)c3ccccc3)nn(C)c2n1,"inconclusive [inhibitor, single point]",
N=C1c2ccccc2CN1NC(=O)c1cccc(S(=O)(=O)N2CCCC2)c1,,inactive: 0%
O=C1CC(Sc2ccc(Cl)cc2)C(=O)N1Cc1ccncc1 (centres undefined),,inactive: -0.889%
CC(C)CN1CCN(Cc2cccn2-c2ccc(Cl)cn2)CC1CCO (centres undefined),"inconclusive [inhibitor, single point]",

SMILES,Potency,"activity change, negative = inhibition"
COc1cccc(-c2nn(-c3ccc(C)cc3)cc2C(=O)N2CCc3cc(OC)c(OC)cc3C2)c1,active: 9.28 µM,
Cc1cccc(NS(=O)(=O)c2cc(C(=O)OC(C)C(=O)NCc3ccc4c(c3)OCO4)ccc2C)c1 (centres undefined),"inconclusive [inhibitor, single point]",
CC(C)NC(=O)c1sc(=S)n2c1[nH]c(=O)c1ccc(C(=O)NCCc3ccc(Cl)cc3)cc12,"inconclusive [inhibitor, single point]",
CCCCCCn1ccc(=N)cc1,active: 3.29 µM,
CN1CCN(c2ccc(NC(=O)CN3CCOCC3)cc2F)CC1,"inconclusive [inhibitor, single point]",
O=C(NCC(=O)N1CCCCC1)c1ccc2ccccc2c1,,inactive: 54%
O=C1CCCC2=C1C1O[C@](CCCCN3C(=O)c4ccccc4C3=O)(Cc3c1ccc1ccccc31)O2,"inconclusive [inhibitor, single point]",
COc1ccc(NC2CCCN(C(=O)CSc3ccccc3)C2)cc1OC (centres undefined),,inactive: -25%
O=C(N/N=C/c1ccc([N+](=O)[O-])o1)C(O)c1ccccc1 (centres undefined),"inconclusive [inhibitor, partial curve]",
COc1ccc(Cl)cc1NC1=NCC(C)S1 (centres undefined),,inactive: 1.91%
CN(C)S(=O)(=O)c1cccc(NC(=O)COC(=O)/C=C/c2ccco2)c1,,inactive: 18.5%
Cc1cccc(C(=O)NNc2ncnc3c2cnn3C)c1,,inactive: -2.77%
CCOc1ccc(S(=O)(=O)NCc2ccc(OC)cc2)c2cccnc12,,inactive: 8.96%
COc1ccccc1C(CNC(=O)c1ccc(OCc2c(C)noc2C)cc1)N1CCCC1 (centres undefined),active: 10.4 µM,
Cc1ccc(-n2nc3c(=O)n(C(C)C(=O)NCc4ccc5c(c4)OCO5)nc(C)c3c2C)cc1 (centres undefined),"inconclusive [inhibitor, single point]",
CCOc1ccc(-c2nc(C#N)c(N3CCCCCC3)o2)cc1,"inconclusive [inhibitor, single point]",
COc1ccc(C2CC(c3cccs3)=NN2C(=S)Nc2ccccc2)cc1OC (centres undefined),active: 6.57 µM,
Cc1cc(C)c(NC(=O)CN2CCN(c3ccccn3)CC2)c(C)c1,,inactive: -4.93%
COc1ccc(-n2cc(CN(C)CCO)c(-c3cccc(F)c3)n2)cc1,"inconclusive [inhibitor, single point]",
O=C1N=C(N2CCOCC2)S/C1=C\c1ccccc1OS(=O)(=O)c1ccccc1,"inconclusive [inhibitor, partial curve]",
COc1cc(OC)c(C(=O)N(CCc2ccccc2)Cc2ccccc2)cc1OC,"inconclusive [inhibitor, partial curve, poor fit]",
Cc1cccc(OCC(=O)Nc2nnn(C)n2)c1C,,inactive: -4.26%
CCOc1ccc2[nH]c(=O)c(CN(Cc3nnnn3CCc3ccccc3)CC3CCCO3)cc2c1 (centres undefined),active: 13.1 µM,
O=C(COS(=O)c1ccccc1)Nc1cc(Cl)ccc1N1CCOCC1 (centres undefined),"inconclusive [inhibitor, single point]",
